This is one part of the list.

The record followed here is paper PMC12820563, “FoxP3 forms a head-to-head dimer in vivo and stabilizes its multimerization on adjacent microsatellites”.

The target of the assay is T1, MBP-FoxP1dN (Mus musculus, UniProt P58462 326-579).
T1 sequence: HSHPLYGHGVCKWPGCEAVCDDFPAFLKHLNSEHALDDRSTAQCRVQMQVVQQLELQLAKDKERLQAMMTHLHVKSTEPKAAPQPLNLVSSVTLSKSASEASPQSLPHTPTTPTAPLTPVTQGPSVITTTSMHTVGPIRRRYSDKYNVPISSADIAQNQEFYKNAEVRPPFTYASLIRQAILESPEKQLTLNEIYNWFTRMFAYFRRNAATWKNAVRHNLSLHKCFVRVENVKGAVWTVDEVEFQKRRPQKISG
Description: PD-seq (MBP pull-down with sequencing); 20 mM Tris-HCl pH 7.5, 100 mM NaCl, 1.5 mM MgCl2, 0.4 uM protein, 0.1 uM dsDNA library, 30 min, room temperature, amylose pull-down; high values mean tight binding. To be noted: protein: recombinant; tags: His6-MBP; chain copies: 2; dsDNA, one strand shown. In a few lines: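 In Tris pH 7.5 buffer with NaCl and MgCl2, 0.4 µM His6-MBP-tagged mouse FoxP3 or FoxP1 fragment lacking the N-terminus, from E. coli, met 0.1 µM Klenow-filled double-stranded degenerate DNA library for 30 min at room temperature. Three washes on amylose resin followed capture of the complexes, then proteinase K release of DNA, PCR barcoding and Illumina sequencing. Binding is taken as pooled-replicate reads-per-million enrichment of pull-down relative to input.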
Turning to “GATGATTGTTCTCCCAGCTGATGAATTCCCTGCATCGAGTAAACAAATTTTCCTAATCTTTCTGTTCAAGCGCCATCTAC”, the binding signal is 1.05 RPM ratio (pull-down/input).

Turning to “GATGATTGTTCTCCCAGCTGATGAATTCCGGTCTTCGAGTAAACAAATTTTCCTAATCTTTCTGTTCAAGCGCCATCTAC”, the binding signal is 0.787 RPM ratio (pull-down/input).

On to “GATGATTGTTCTCCCAGCTGATGAATTGCCGCAGTCGAGTAAACAAATTTTCCTAATCTTTCTGTTCAAGCGCCATCTAC”, for which the binding signal is 0.916 RPM ratio (pull-down/input).

Take “GATGATTGTTCTCCCAGCTGATGAATTGATTAATTCGAGTAAACAAATTTTCCTAATCTTTCTGTTCAAGCGCCATCTAC”: the binding signal is 1.23 RPM ratio (pull-down/input).

Regarding “GATGATTGTTCTCCCAGCTGATGAATTCACAGGGTCGAGTAAACAAATTTTCCTAATCTTTCTGTTCAAGCGCCATCTAC”, the binding signal is 0.744 RPM ratio (pull-down/input).

In the case of “GATGATTGTTCTCCCAGCTGATGAATTTGCTTCCTCGAGTAAACAAATTTTCCTAATCTTTCTGTTCAAGCGCCATCTAC”, the binding signal is 0.968 RPM ratio (pull-down/input).

As for “GATGATTGTTCTCCCAGCTGATGAATTGATGCCATCGAGTAAACAAATTTTCCTAATCTTTCTGTTCAAGCGCCATCTAC”, the binding signal was 1.39 RPM ratio (pull-down/input).

For the sequence “GATGATTGTTCTCCCAGCTGATGAATTCGTGTTTTCGAGTAAACAAATTTTCCTAATCTTTCTGTTCAAGCGCCATCTAC”, the binding signal is 2.29 RPM ratio (pull-down/input).

Take “GATGATTGTTCTCCCAGCTGATGAATTCTCGTTATCGAGTAAACAAATTTTCCTAATCTTTCTGTTCAAGCGCCATCTAC”: the binding signal was 0.953 RPM ratio (pull-down/input).

As for “GATGATTGTTCTCCCAGCTGATGAATTAGCCACTTCGAGTAAACAAATTTTCCTAATCTTTCTGTTCAAGCGCCATCTAC”, the binding signal is 0.908 RPM ratio (pull-down/input).

Consider “GATGATTGTTCTCCCAGCTGATGAATTTCAGCCTTCGAGTAAACAAATTTTCCTAATCTTTCTGTTCAAGCGCCATCTAC”, for which the binding signal was 0.78 RPM ratio (pull-down/input).

For the sequence “GATGATTGTTCTCCCAGCTGATGAATTTATATGATCGAGTAAACAAATTTTCCTAATCTTTCTGTTCAAGCGCCATCTAC”, the binding signal was 1.14 RPM ratio (pull-down/input).

On to “GATGATTGTTCTCCCAGCTGATGAATTCAAACTGTCGAGTAAACAAATTTTCCTAATCTTTCTGTTCAAGCGCCATCTAC”, for which the binding signal is 0.837 RPM ratio (pull-down/input).

For “GATGATTGTTCTCCCAGCTGATGAATTTGTATTGTCGAGTAAACAAATTTTCCTAATCTTTCTGTTCAAGCGCCATCTAC”, the binding signal is 2.88 RPM ratio (pull-down/input).

Consider “GATGATTGTTCTCCCAGCTGATGAATTCTGCACTTCGAGTAAACAAATTTTCCTAATCTTTCTGTTCAAGCGCCATCTAC”, for which the binding signal is 0.89 RPM ratio (pull-down/input).

Regarding “GATGATTGTTCTCCCAGCTGATGAATTGCACTACTCGAGTAAACAAATTTTCCTAATCTTTCTGTTCAAGCGCCATCTAC”, the binding signal was 1.21 RPM ratio (pull-down/input).

For “GATGATTGTTCTCCCAGCTGATGAATTGCCACTCTCGAGTAAACAAATTTTCCTAATCTTTCTGTTCAAGCGCCATCTAC”, the binding signal is 1.02 RPM ratio (pull-down/input).

Consider “GATGATTGTTCTCCCAGCTGATGAATTGTGACTGTCGAGTAAACAAATTTTCCTAATCTTTCTGTTCAAGCGCCATCTAC”, for which the binding signal is 1.08 RPM ratio (pull-down/input).

Consider “GATGATTGTTCTCCCAGCTGATGAATTGGGATCGTCGAGTAAACAAATTTTCCTAATCTTTCTGTTCAAGCGCCATCTAC”, for which the binding signal is 0.853 RPM ratio (pull-down/input).

In the case of “GATGATTGTTCTCCCAGCTGATGAATTCACATTTTCGAGTAAACAAATTTTCCTAATCTTTCTGTTCAAGCGCCATCTAC”, the binding signal was 1.02 RPM ratio (pull-down/input).

In the case of “GATGATTGTTCTCCCAGCTGATGAATTAAAATAGTCGAGTAAACAAATTTTCCTAATCTTTCTGTTCAAGCGCCATCTAC”, the binding signal was 0.95 RPM ratio (pull-down/input).

As to “GATGATTGTTCTCCCAGCTGATGAATTAGAATTTTCGAGTAAACAAATTTTCCTAATCTTTCTGTTCAAGCGCCATCTAC”, the binding signal is 1.05 RPM ratio (pull-down/input).

Regarding “GATGATTGTTCTCCCAGCTGATGAATTGACAGCTTCGAGTAAACAAATTTTCCTAATCTTTCTGTTCAAGCGCCATCTAC”, the binding signal was 1.07 RPM ratio (pull-down/input).

Turning to “GATGATTGTTCTCCCAGCTGATGAATTCTTGGCTTCGAGTAAACAAATTTTCCTAATCTTTCTGTTCAAGCGCCATCTAC”, the binding signal was 0.855 RPM ratio (pull-down/input).

In the case of “GATGATTGTTCTCCCAGCTGATGAATTTGACGTCTCGAGTAAACAAATTTTCCTAATCTTTCTGTTCAAGCGCCATCTAC”, the binding signal was 0.791 RPM ratio (pull-down/input).

Consider “GATGATTGTTCTCCCAGCTGATGAATTCGGTTTCTCGAGTAAACAAATTTTCCTAATCTTTCTGTTCAAGCGCCATCTAC”, for which the binding signal is 0.847 RPM ratio (pull-down/input).

“GATGATTGTTCTCCCAGCTGATGAATTGATTAGGTCGAGTAAACAAATTTTCCTAATCTTTCTGTTCAAGCGCCATCTAC”: the binding signal is 0.991 RPM ratio (pull-down/input).

With “GATGATTGTTCTCCCAGCTGATGAATTTACATCTTCGAGTAAACAAATTTTCCTAATCTTTCTGTTCAAGCGCCATCTAC”, the binding signal was 1.33 RPM ratio (pull-down/input).

Take “GATGATTGTTCTCCCAGCTGATGAATTAACGCCTTCGAGTAAACAAATTTTCCTAATCTTTCTGTTCAAGCGCCATCTAC”: the binding signal is 0.993 RPM ratio (pull-down/input).

As for “GATGATTGTTCTCCCAGCTGATGAATTGTTGGTGTCGAGTAAACAAATTTTCCTAATCTTTCTGTTCAAGCGCCATCTAC”, the binding signal was 1.8 RPM ratio (pull-down/input).

As to “GATGATTGTTCTCCCAGCTGATGAATTACGCAGATCGAGTAAACAAATTTTCCTAATCTTTCTGTTCAAGCGCCATCTAC”, the binding signal was 0.961 RPM ratio (pull-down/input).
